PubChem BioAssay AID485281 (National Center for Advancing Translational Sciences (NCATS), 2010)
About 260 (0.074%) of roughly 350,000 compounds were called active. Inconclusive results, whose numbers are uncertain, are shown with a selection of clear calls. Calls follow the shape of the dose curve; as a rule, active = well fitted inhibition curve with a large enough effect; inconclusive = small, poorly fitted or top-dose-only effect; inactive = no such curve, though single readings can be large or run the other way. Where the call is inconclusive, the potency comes from a doubtful curve fit.

biological target: Ferritin light chain (Equus caballus) (UniProt P02791); assay: qHTS Assay for Identification of Novel General Anesthetics; details: apoferritin/1-aminoanthracene competitive binding, fluorescence; activity change, negative = displacement: at 77.5 µM (top of the series); also: nearly all actives have a fitted effect of over 20% in size
Sequence of UniProt P02791 (P02791 whole entry, looked up): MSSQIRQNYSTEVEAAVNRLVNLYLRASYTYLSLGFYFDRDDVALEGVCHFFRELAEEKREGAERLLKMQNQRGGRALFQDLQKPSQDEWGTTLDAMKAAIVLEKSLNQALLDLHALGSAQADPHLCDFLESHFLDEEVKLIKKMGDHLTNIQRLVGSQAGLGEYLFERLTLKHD
Summary of the method: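 Read-out: endpoint 1-AMA fluorescence, excitation 380 nm and emission 535 nm, after compounds sit 10 min at room temperature with 10 uM horse-spleen apoferritin in 50% saturated 1-AMA/PBS. Values come from four-parameter Hill fits.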
% is scaled to controls: 0 for no effect and ±100 for the full control effect; potency is read from the fitted curve at half-maximal effect; tags tell the direction and shape of the fitted curve.

Activity change, negative = displacement, inactive:
N#Cc1c(NC(=O)c2ccccc2Cl)n(Cc2ccccc2)c2nc3ccccc3nc12 1.04%
NC(=O)Cc1nc(-c2ccc(F)cc2)cs1 1.08%
O=C(c1ccccc1)N1CCN(C(=O)c2ccccc2)CC1 -1.81%
O=C(CN1C(=O)CCC1=O)Nc1ccc(Br)cc1 -12.9%
OC(c1nc2ccccc2[nH]1)C(O)c1nc2ccccc2[nH]1 (stereo unspecified) -14.4%
CCOc1ccc(C(=O)N2CCCCCC2)cc1 -11.7%
CCc1cccc(C)c1NC(=O)Cn1cc2c(n1)CCCC2 -6.12%
CCCN1CCN(CCCNC(=S)Nc2ccc3nc(N4CCN(CC)CC4)cc(C)c3c2)CC1 -0.572%
O=c1oc2ccccc2nc1/C=C(O)/C=C/c1ccc(F)cc1 -3.34%
O=C(c1ccc(S(=O)(=O)c2cccc(Cl)c2)c([N+](=O)[O-])c1)N1CCN(Cc2ccccc2)CC1 -21.3%
Cn1c(=O)n(C)c2cc(NC(=O)CCl)ccc21 -7.07%
O=C(NCC1CCCN(Cc2ccccc2F)C1)c1cccc(C(F)(F)F)c1 (stereo unspecified) -20.6%
COc1ccccc1CNC(=O)CCCn1c(=O)c2ccccc2n(Cc2ccc(C)cc2)c1=O 3.77%
CCOC(=O)C1=C(c2ccccc2)OC(N)=C(C#N)C1c1cccnc1 (stereo unspecified) -8.37%
COc1ccc(CN2CCC(CO)(CCOc3ccccc3)CC2)cc1C -18.8%
N#CCCn1c2ccccc2c2nc3ccccc3nc21 -2.62%
Cc1nnc(N2CCCC(C(=O)NCCc3ccccc3)C2)c2nn(-c3ccccc3)c(C)c12 (stereo unspecified) -3.37%
O=C(c1cccc(COc2cccc3ccccc23)c1)N1CCCC1 -23.6%
CN(C)CCNC(=O)c1ccc2c(c1)N(Cc1c(F)cccc1Cl)C(=O)c1ccccc1S2 -7.14%
O=C(Nc1ccc(C2=NCCN2)cc1)c1ccc(C(=O)Nc2ccc(C3=NCCN3)cc2)c([N+](=O)[O-])c1 -15.4%
CCOC(=O)Cn1c(=O)oc2cc(S(=O)(=O)N3CCN(c4cc(C)ccc4C)CC3)ccc21 31.1%
O=[N+]([O-])c1c(Nc2ccccc2)ccc2nonc12 1.13%

Potency, active:
O=[N+]([O-])c1ccccc1NCc1ccc(Cl)cc1 8.91 µM
O=C(Nc1cccc(Cl)c1)OCc1cnc(Cl)s1 10 µM

Potency, inactive:
C1CCN2C[C@H]3C[C@H](CN4CCCCC34)C2C1 (stereo partly specified)

Potency, inconclusive:
CC[n+]1c(/C=C(\C)SC)sc2ccccc21 50.1 µM [inhibitor, single point]
CN(c1ccccc1)S(=O)(=O)c1nnc(NC(=O)C2CCCCC2)s1 44.7 µM [inhibitor, single point]
Cc1ccc(NC(=O)CSc2nnc(-c3ccccc3Br)o2)cc1C 35.5 µM [inhibitor, partial curve]
c1ccc(Cc2nn3c(C4COc5ccccc5O4)nnc3s2)cc1 (stereo unspecified) 35.5 µM [inhibitor, single point]
COc1ccc(C2=NS(=O)(=O)N(C)C(C(=O)N3C(C)CCCC3C)=C2)cc1 (stereo unspecified) 22.4 µM [inhibitor, partial curve]
COc1ccc(C(=O)Nc2ccccc2C(=O)N/N=C/c2ccc(O)c(OC)c2)cc1 2.82 µM [inhibitor, partial curve]
Cc1ccc(C)c(OCc2cc(C(=O)NC3CCOC(C)(C)C3)no2)c1 (stereo unspecified) 28.2 µM [inhibitor, partial curve]
COc1ccccc1C1=NOC(COC(=O)c2ccc3ccccc3n2)C1 (stereo unspecified) 22.4 µM [inhibitor, partial curve]
COc1ccc(C)cc1NC(=O)C1COc2ccccc2C1 (stereo unspecified) 56.2 µM [inhibitor, single point]
CCCCCc1ccc(-c2nnc(N)s2)cc1 14.1 µM [inhibitor, partial curve]
CCCNS(=O)(=O)c1cccn1-c1ncc(C(F)(F)F)cc1Cl 31.6 µM [inhibitor, single point]
COc1ccc(OC)c(N/C(C)=C/C(=O)c2ccc(Br)cc2)c1 39.8 µM [inhibitor, single point]
CCOC(=O)N1CCC(n2c(SCC(=O)NCCC3=CCCCC3)nc3ccccc3c2=O)CC1 3.55 µM [inhibitor, full curve, poor fit]
CCCc1nn(-c2ccccc2)c2c1C(c1cccs1)C(C#N)=C(N)O2 (stereo unspecified) 35.5 µM [inhibitor, partial curve]
CCn1nc(C(=O)OCC(=O)c2ccc3c(c2)OCCO3)c2ccccc2c1=O 11.2 µM [inhibitor, partial curve]
Cc1cccn2c(=O)c3cc(C(=O)NCCN4CCOCC4)c(=N)n(Cc4cccnc4)c3nc12 25.1 µM [inhibitor, partial curve]
COc1ccc(OCc2cc(C(=O)NCC(C)Oc3cccnc3)no2)c(Cl)c1 (stereo unspecified) 14.1 µM [inhibitor, partial curve]
FC(F)(F)c1cccc(NC(=S)N2CCCCCC2)c1 8.91 µM [inhibitor, partial curve]
Cc1ccc(SCC(=O)N/N=C/c2ccco2)cc1 50.1 µM [inhibitor, single point]
COC(=O)CSc1nnnn1-c1ccccc1 50.1 µM [inhibitor, single point]
CCN1CCC(=NNC(=O)CC23CC4CC(CC(C4)C2)C3)CC1 35.5 µM [inhibitor, partial curve]
Cc1ccc(NC(=O)c2sccc2C)cc1[N+](=O)[O-] 31.6 µM [inhibitor, single point]
O=C(NNC(=O)c1ccccc1[N+](=O)[O-])c1ccc(NC(=O)c2ccccc2)cc1 25.1 µM [inhibitor, single point]
Cc1cc2c3c([nH]c2cc1S(=O)(=O)N1CCC2(CC1)OCCO2)CC(C)(C)CC3=O 22.4 µM [inhibitor, single point]
Cc1cc(C)c(C)c(S(=O)(=O)N2CCN(CC(=O)c3c(N)n(Cc4ccccc4)c(=O)n(C)c3=O)CC2)c1C 5.62 µM [inhibitor, single point]
COc1ccc(-c2nnn(CC(=O)N(Cc3cccs3)C(C)C(=O)NC3CCCC3)n2)cc1OC (stereo unspecified) 39.8 µM [inhibitor, partial curve, poor fit]
CC1=C(C(=O)OCc2ccccc2)C(c2ccccc2Cl)NC(=O)N1C (stereo unspecified) 17.8 µM [inhibitor, partial curve]
CCc1ccc(-c2csc(NC(=O)Oc3ccccc3)n2)cc1 56.2 µM [inhibitor, single point]
COc1cccc(NC(=O)Cc2cccs2)c1 44.7 µM [inhibitor, partial curve]
CCN1C(=O)c2cccc3c(S(=O)(=O)Nc4ccc(OC)cc4OC)ccc1c23 10 µM [inhibitor, partial curve]
CC(C)CC(=O)Nc1ccc(C(=O)Cn2nc(C(=O)O)c3ccccc3c2=O)cc1 28.2 µM [inhibitor, partial curve]
CC(C)(C)NC(=O)CSc1nncn1NCc1cccc2ccccc12 17.8 µM [inhibitor, partial curve]
O=C(NCCCCc1ccccc1)C1CC(c2ccccc2[N+](=O)[O-])=NO1 (stereo unspecified) 39.8 µM [inhibitor, partial curve]
Clc1cccc(OCCCn2ccnc2)c1 15.8 µM [inhibitor, partial curve]
CNc1ccccc1C(C)(C)c1cc(-c2ccco2)n[nH]1 28.2 µM [inhibitor, partial curve]
O=C(CSc1nnc(COc2cccc3cccnc23)o1)c1ccc(F)cc1 39.8 µM [inhibitor, partial curve]
C[C@@H]1/C(=N/O)CC2C[C@@H]1C2(C)C 7.08 µM [inhibitor, partial curve]
O=[N+]([O-])c1cc([N+](=O)[O-])c(Oc2ccc(Cl)c3cccnc23)cc1NN1CCCCC1 11.2 µM [inhibitor, partial curve, poor fit]
Nc1ccccc1-c1nnc(SCc2ccccc2Cl)[nH]c1=O 14.1 µM [inhibitor, partial curve]
CSc1cccc(NC(=O)CSc2ccccc2)c1 44.7 µM [inhibitor, single point]
C/C(=N\Nc1ccc(C)c(Cl)c1)c1ccncc1 31.6 µM [inhibitor, single point]
CC(=O)Nc1ccc(N2C(=O)CC(Sc3nc4ccccc4s3)C2=O)cc1 (stereo unspecified) 31.6 µM [inhibitor, single point]
Cc1nnc(SCc2c(Cl)cccc2Cl)s1 31.6 µM [inhibitor, partial curve]
Cc1ccc(-c2cc(NC(=O)c3ccccc3[N+](=O)[O-])n[nH]2)cc1 31.6 µM [inhibitor, partial curve]
COc1ccc(OCc2cc(C(=O)N3CCCC(CO)C3)no2)c2ccccc12 (stereo unspecified) 28.2 µM [inhibitor, single point]
Cc1ccc(N(CC(=O)Nc2ccc(F)cc2)S(=O)(=O)N2CCCC2)cc1 10 µM [inhibitor, partial curve]
